± gives the uncertainty stated by the source.
These sequences were tested on HEK293T (assay: plasma membrane surface immunostaining intensity (anti-HA, deep receptor scanning) (arbitrary fluorescence units); higher = higher plasma membrane expression). Conditions: GPCR class: A.

Sequence	plasma membrane surface immunostaining intensity
MGDRRFIDFQFQDSNSSLRPRLGNATANNTCIVDDSFKYNLNGAVYSVVFILGLITNSVSLFVFCFRMKMRSETAIFITNLAVSDLLFVCTLPFKIFYNFNRHWPFGDTLCKISGTAFLTNIYGSMLFLTCISVDRFLAIVYPFRSRTIRTRRNSAIVCAGVWILVLSGGISASLFSTTNVNNATTTCFEGFSKRVWKTYLSKITIFIEVVGFIIPLILNVSCSSVVLRTLRKPATLSQIGTNKKKVLKMITVHMAVFVVCFVPYNSVLFLYALVRSQAITNCFLERFAKIMYPITLCLATLNCCFDPFIYYFTLESFQKSFYINAHIRMESLFKTETPLTTKPSLPAIQEEVSDQTTNNGGELMLESTF [LPAR4]	917 ± 150
MGFNLTLAKLPNNELHGQESHNSGNRSDGPGKNTTLHNEFDTIVLPVLYLIIFVASILLNGLAVWIFFHIRNKTSFIFYLKNIVVADLIMTLTFPFRIVHDAGFGPWYFKFILCRYTSVLFYANMYTSIVFLGLISIDRYLKVVKPFGDSRMYSITFTKVLSVCVWVIMAVLSLPNIILTNGQPTEDNIHDCSKLKSPLGVKWHTAVTYVNSCLFVAVLVILIGCYIAISRYIHKSSRQFISQSSRKRKHNQSIRVVVAVFFTCFLPYHLCRIPFTFSHLDRLLDESAQKILYYCKEITLFLSACNVCLDPIIYFFMCRSFSRRLFKKSNIRTRSESIRSLQSVRRSEVRIYYDYTDV [GPR87]	296 ± 15
MGNASNDSQSEDCETRQWLPPGESPAISSVMFSAGVLGNLIALALLARRWRGDVGCSAGRRSSLSLFHVLVTELVFTDLLGTCLISPVVLASYARNQTLVALAPESRACTYFAFAMTFFSLATMLMLFAMALERYLSIGHPYFYQRRVSRSGGLAVLPVIYAVSLLFCSLPLLDYGQYVQYCPGTWCFIRHGRTAYLQLYATLLLLLIVSVLACNFSVILNLIRMHRRSRRSRCGPSLGSGRGGPGARRRGERVSMAEETDHLILLAIMTITFAVCSLPFTIFAYMNETSSRKEKWDLQALRFLSINSIIDPWVFAILRPPVLRLMRSVLCCRISLRTQDATQTSCSTQSDASKQADL [PTGER2]	6315 ± 36
MGNDSVSYEYGDYSDLSDRPVDCLDGACLAIDPLRVAPLPLYAAIFLVGVPGNAMVAWVAGKVARRRVGATWLLHLAVADLLCCLSLPILAVPIARGGHWPYGAVGCRALPSIILLTMYASVLLLAALSADLCFLALGPAWWSTVQRACGVQVACGAAWTLALLLTVPSAIYRRLHQEHFPARLQCVVDYGGSSSTENAVTAIRFLFGFLGPLVAVASCHSALLCWAARRCRPLGTAIVVGFFVCWAPYHLLGLVLTVAAPNSALLARALRAEPLIVGLALAHSCLNPMLFLYFGRAQLRRSLPAACHWALRESQGQDESVDSKKSTSHDLVSEMEV [C5AR2]	685 ± 42
MGNHTWEGCHVDSRVDHLFPPSLYIFVIGVGLPTNCLALWAAYRQVQQRNELGVYLMNLSIADLLYICTLPLWVDYFLHHDNWIHGPGSCKLFGFIFYTNIYISIAFLCCISVDRYLAVAHPLRFARLRRVKTAVAVSSVVWATELGANSAPLFHDELFRDRYNHTFCFEKFPMEGWVAWMNLYRVFVGFLFPWALMLLSYRGILRAVRGSVSTERQEKAKIKRLALSLIAIVLVCFAPYHVLLLSRSAIYLGRPWDCGFEERVFSAYHSSLAFTSLNCVADPILYCLVNEGARSDVAKALHNLLRFLASDKPQEMANASLTLETPLTSKRNSTAKAMTGSWAATPPSQGDQVQLKMLPPAQ [GPR4]	2720 ± 260
MGNITADNSSMSCTIDHTIHQTLAPVVYVTVLVVGFPANCLSLYFGYLQIKARNELGVYLCNLTVADLFYICSLPFWLQYVLQHDNWSHGDLSCQVCGILLYENIYISVGFLCCISVDRYLAVAHPFRFHQFRTLKAAVGVSVVIWAKELLTSIYFLMHEEVIEDENQHRVCFEHYPIQAWQRAINYYRFLVGFLFPICLLLASYQGILRAVRRSHGTQKSRKDQIQRLVLSTVVIFLACFLPYHVLLLVRSVWEASCDFAKGVFNAYHFSLLLTSFNCVADPVLYCFVSETTHRDLARLRGACLAFLTCSRTGRAREAYPLGAPEASGKSGAQGEEPELLTKLHPAFQTPNSPGSGGFPTGRLA [GPR68]	6390 ± 120
MGPGEALLAGLLVMVLAVALLSNALVLLCCAYSAELRTRASGVLLVNLSLGHLLLAALDMPFTLLGVMRGRTPSAPGACQVIGFLDTFLASNAALSVAALSADQWLAVGFPLRYAGRLRPRYAGLLLGCAWGQSLAFSGAALGCSWLGYSSAFASCSLRLPPEPERPRFAAFTATLHAVGFVLPLAVLCLTSLQVHRVARRHCQRMDTVTMKALALLADLHPSVRQRCLIQQKRRRHRATRKIGIAIATFLICFAPYVMTRLAELVPFVTVNAQWGILSKCLTYSKAVADPFTYSLLRRPFRQVLAGMVHRLLKRTPRPASTHDSSLDVAGMVHQLLKRTPRPASTHNGSVDTENDSCLQQTH [GPR78]	1840 ± 360
MGPTLAVPTPYGCIGCKLPQPEYPPALIIFMFCAMVITIVVDLIGNSMVILAVTKNKKLRNSGNIFVVSLSVADMLVAIYPYPLMLHAMSIGGWDLSQLQCQMVGFITGLSVVGSIFNIVAIAINRYCYICHSLQYERIFSVRNTCIYLVITWIMTVLAVLPNMYIGTIEYDPRTYTCIFNYLNNPVFTVTIVCIHFVLPLLIVGFCYVRIWTKVLAARDPAGQNPDNQLAEVRNFLTMFVIFLLFAVCWCPINVLTVLVAVSPKEMAGKIPNWLYLAAYFIAYFNSCLNAVIYGLLNENFRREYWTIFHAMRHPIIFFSGLISDIREMQEARTLARARAHARDQAREQDRAHACPAVEETPMNVRNVPLPGDAAAGHPDRASGHPKPHSRSSSAYRKSASTHHKSVFSHSKAASGHLKPVSGHSKPASGHPKSATVYPKPASVHFKADSVHFKGDSVHFKPDSVHFKPASSNPKPITGHHVSAGSHSKSAFSAATSHPKPTTGHIKPATSHAEPTTADYPKPATTSHPKPTAADNPELSASHCPEIPAIAHPVSDDSDLPESASSPAAGPTKPAASQLESDTIADLPDPTVVTTSTNDYHDVVVIDVEDDPDEMAV [GPR50]	6412 ± 50
MGPTSVPLVKAHRSSVSDYVNYDIIVRHYNYTGKLNISADKENSIKLTSVVFILICCFIILENIFVLLTIWKTKKFHRPMYYFIGNLALSDLLAGVAYTANLLLSGATTYKLTPAQWFLREGSMFVALSASVFSLLAIAIERYITMLKMKLHNGSNNFRLFLLISACWVISLILGGLPIMGWNCISALSSCSTVLPLYHKHYILFCTTVFTLLLLSIVILYCRIYSLVRTRSRRLTFRKNISKASRSSEKSLALLKTVIIVLSVFIACWAPLFILLLLDVGCKVKTCDILFRAEYFLVLAVLNSGTNPIIYTLTNKEMRRAFIRIMSCCKCPSGDSAGKFKRPIIAGMEFSRSKSDNSSHPQKDEGDNPETIMSSGNVNSSS [S1PR1]	1970 ± 490
MGQCYYNETIGFFYNNSGKELSSHWRPKDVVVVALGLTVSVLVLLTNLLVIAAIASNRRFHQPIYYLLGNLAAADLFAGVAYLFLMFHTGPRTARLSLEGWFLRQGLLDTSLTASVATLLAIAVERHRSVMAVQLHSRLPRGRVVMLIVGVWVAALGLGLLPAHSWHCLCALDRCSRMAPLLSRSYLAVWALSSLLVFLLMVAVYTRIFFYVRRRVQRMAEHVSCHPRYRETTLSLVKTVVIILGAFVVCWTPGQVVLLLDGLGCESCNVLAVEKYFLLLAEANSLVNAAVYSCRDAEMRRTFRRLLCCACLRQSTRESVHYTSSAQGGASTRIMLPENGHPLMDSTL [LPAR2]	786 ± 170
MGSLYSEYLNPNKVQEHYNYTKETLETQETTSRQVASAFIVILCCAIVVENLLVLIAVARNSKFHSAMYLFLGNLAASDLLAGVAFVANTLLSGSVTLRLTPVQWFAREGSAFITLSASVFSLLAIAIERHVAIAKVKLYGSDKSCRMLLLIGASWLISLVLGGLPILGWNCLGHLEACSTVLPLYAKHYVLCVVTIFSIILLAIVALYVRIYCVVRSSHADMAAPQTLALLKTVTIVLGVFIVCWLPAFSILLLDYACPVHSCPILYKAHYFFAVSTLNSLLNPVIYTWRSRDLRREVLRPLQCWRPGVGVQGRRRGGTPGHHLLPLRSSSSLERGMHMPTSPTFLEGNTVV [S1PR2]	3710 ± 390
MGSPWNGSDGPEGAREPPWPALPPCDERRCSPFPLGALVPVTAVCLCLFVVGVSGNVVTVMLIGRYRDMRTTTNLYLGSMAVSDLLILLGLPFDLYRLWRSRPWVFGPLLCRLSLYVGEGCTYATLLHMTALSVERYLAICRPLRARVLVTRRRVRALIAVLWAVALLSAGPFLFLVGVEQDPGISVVPGLNGTARIASSPLASSPPLWLSRAPPPSPPSGPETAEAAALFSRECRPSPAQLGALRVMLWVTTAYFFLPFLCLSILYGLIGRELWSSRRPLRGPAASGRERGHRQTVRVLLVVVLAFIICWLPFHVGRIIYINTEDSRMMYFSQYFNIVALQLFYLSASINPILYNLISKKYRAAAFKLLLARKSRPRGFHRSRDTAGEVAGDTGGDTVGYTETSANVKTMG [MLNR]	6355 ± 60

Same assay, conditions: GPCR class: C

Sequence	plasma membrane surface immunostaining intensity
MGSLLALLALLLLWGAVAEGPAKKVLTLEGDLVLGGLFPVHQKGGPAEDCGPVNEHRGIQRLEAMLFALDRINRDPHLLPGVRLGAHILDSCSKDTHALEQALDFVRASLSRGADGSRHICPDGSYATHGDAPTAITGVIGGSYSDVSIQVANLLRLFQIPQISYASTSAKLSDKSRYDYFARTVPPDFFQAKAMAEILRFFNWTYVSTVASEGDYGETGIEAFELEARARNICVATSEKVGRAMSRAAFEGVVRALLQKPSARVAVLFTRSEDARELLAASQRLNASFTWVASDGWGALESVVAGSEGAAEGAITIELASYPISDFASYFQSLDPWNNSRNPWFREFWEQRFRCSFRQRDCAAHSLRAVPFEQESKIMFVVNAVYAMAHALHNMHRALCPNTTRLCDAMRPVNGRRLYKDFVLNVKFDAPFRPADTHNEVRFDRFGDGIGRYNIFTYLRAGSGRYRYQKVGYWAEGLTLDTSLIPWASPSAGPLPASRCSEPCLQNEVKSVQPGEVCCWLCIPCQPYEYRLDEFTCADCGLGYWPNASLTGCFELPQEYIRWGDAWAVGPVTIACLGALATLFVLGVFVRHNATPVVKASGRELCYILLGGVFLCYCMTFIFIAKPSTAVCTLRRLGLGTAFSVCYSALLTKTNRIARIFGGAREGAQRPRFISPASQVAICLALISGQLLIVVAWLVVEAPGTGKETAPERREVVTLRCNHRDASMLGSLAYNVLLIALCTLYAFKTRKCPENFNEAKFIGFTMYTTCIIWLAFLPIFYVTSSDYRVQTTTMCVSVSLSGSVVLGCLFAPKLHIILFQPQKNVVSHRAPTSRFGSAAARASSSLGQGSGSQFVPTVCNGREVVDSTTSSL [GRM2]	6450 ± 91

Reference: the supplement of paper PMC12458215
